{
  "source": "the supplement of paper PMC11348887",
  "note": "Where a name gives a salt, the structure may show the parent alone. Some of the results follow. No stated cut-off is given here; in the data, active = -2 or less and inactive = the rest. Many values rest on one well or one pass, so single values are uncertain.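 Further: nuclei counted from DAPI counterstain by automated high-content image analysis, four fields per well at ×20 in 384-well plates, with sequential b-score then z-score normalization.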",
  "data": [
    {"test_system": "hPSC-derived cortical neurons (WA09)", "test": "nuclei number (viability) z-score; higher = more surviving cells", "settings": "5 µM; treatment: days 7-14 after plating, readout day 21", "values": [
      {"smiles": "CC(=O)Oc1ccccc1C(=O)O", "note": "[Aspirin]", "nuclei number (z-score)": "inactive: 0.164"},
      {"smiles": "Nc1nc(NC2CC2)cc(-c2cccc(Cl)c2Cl)n1", "nuclei number (z-score)": "inactive: -1.65"},
      {"smiles": "CC1=C(/C=C/C(C)=C/C=C/C(C)=C/C(=O)O)C(C)(C)CCC1", "note": "[Tretinoin]", "nuclei number (z-score)": "inactive: 0.93"},
      {"smiles": "CNC(=O)CN(CCN(CCN(CC(=O)[O-])CC(=O)NC)CC(=O)[O-])CC(=O)[O-].O.[Gd+3]", "note": "[Gadodiamide Hydrate]", "nuclei number (z-score)": "inactive: -0.921"},
      {"smiles": "C[C@]12CC[C@H](O)CC1=CC[C@@H]1[C@@H]2CC[C@]2(C)C(n3cnc4ccccc43)=CC[C@@H]12", "note": "[Galeterone]", "nuclei number (z-score)": "inactive: 3"},
      {"smiles": "NC(=O)c1nc(F)cnc1O", "note": "[Favipiravir (T-705)]", "nuclei number (z-score)": "inactive: -0.0261"},
      {"smiles": "N=C(N)Nc1ccc(C(=O)Oc2ccc3cc(C(=N)N)ccc3c2)cc1", "note": "[Nafamostat Mesylate]", "nuclei number (z-score)": "inactive: 0.958"},
      {"smiles": "O=C(NO)c1cccc(C(=O)NCCc2ccccc2)c1", "nuclei number (z-score)": "inactive: -0.0927"},
      {"smiles": "COc1ncc(-c2cc(-c3ncc(CN4C[C@@H](C)O[C@@H](C)C4)o3)c3cn[nH]c3c2)cc1NS(C)(=O)=O", "nuclei number (z-score)": "inactive: 0.19"},
      {"smiles": "CC(C)n1nc(-c2ccc3oc(N)nc3c2)c2c(N)ncnc21", "nuclei number (z-score)": "active: -2.37"},
      {"smiles": "O=C(O)c1cc(C(F)(F)F)ccc1N1CC[C@H](OCc2ccccn2)C1", "nuclei number (z-score)": "inactive: 0.278"},
      {"smiles": "CC(=O)Nc1nc2c(Oc3cc(-c4ccc(C(F)(F)F)cc4)ncn3)cccc2s1", "nuclei number (z-score)": "inactive: 0.54"},
      {"smiles": "CN1C[C@@H]2C[C@H]1CN2c1cc2c(cc1F)c(=O)c(C(=O)O)cn2C1CC1", "note": "[Danofloxacin Mesylate]", "nuclei number (z-score)": "inactive: -0.423"},
      {"smiles": "N[C@@H](Cc1c[nH]c2ccc(O)cc12)C(=O)O", "note": "[5-hydroxytryptophan (5-HTP)]", "nuclei number (z-score)": "inactive: 0.427"},
      {"smiles": "CC#CC(=O)N1CCC[C@H]1c1nc(-c2ccc(C(=O)Nc3ccccn3)cc2)c2c(N)nccn12", "note": "[Acalabrutinib (ACP-196)]", "nuclei number (z-score)": "inactive: 3.25"},
      {"smiles": "N#CSc1cc(SC#N)c(N)nc1N", "nuclei number (z-score)": "inactive: -0.6"},
      {"smiles": "CCCCCOc1ccc(-c2cc(-c3ccc(C(=O)N[C@H]4C[C@@H](O)[C@@H](O)NC(=O)[C@@H]5[C@@H](O)[C@@H](C)CN5C(=O)[C@H]([C@H](O)CC(N)=O)NC(=O)[C@H]([C@H](O)[C@@H](O)c5ccc(O)c(OS(=O)(=O)O)c5)NC(=O)[C@@H]5C[C@@H](O)CN5C(=O)[C@H]([C@@H](C)O)NC4=O)cc3)no2)cc1", "note": "[Micafungin Sodium]", "nuclei number (z-score)": "inactive: 0.618"},
      {"smiles": "O=C(O)/C=C/c1ccc(O)c(O)c1", "note": "[Caffeic Acid]", "nuclei number (z-score)": "inactive: -0.637"},
      {"smiles": "CC1(C)CC(=O)c2c(C(F)(F)F)nn(-c3ccc(C(N)=O)c(N[C@H]4CC[C@H](O)CC4)c3)c2C1", "nuclei number (z-score)": "active: -7.88"},
      {"smiles": "CCCCc1nc2cc(/C=C/C(=O)NO)ccc2n1CCN(CC)CC", "note": "[Pracinostat (SB939)]", "nuclei number (z-score)": "active: -3.47"},
      {"smiles": "COc1cc2nc(N(C)CCCNC(=O)C3CCCO3)nc(N)c2cc1OC", "note": "(stereo not given) [Alfuzosin HCl]", "nuclei number (z-score)": "inactive: -0.812"},
      {"smiles": "COc1ccc(-c2ccc3ncc4c(c3c2)n(-c2ccc(N3CCNCC3)c(C(F)(F)F)c2)c(=O)n4C)cn1", "nuclei number (z-score)": "active: -5.01"},
      {"smiles": "CC(C)c1cc(-c2n[nH]c(=O)n2-c2ccc3c(ccn3C)c2)c(O)cc1O", "note": "[Ganetespib (STA-9090)]", "nuclei number (z-score)": "active: -3.71"},
      {"smiles": "CC(=O)O[C@]1(C(C)=O)CC[C@H]2[C@@H]3C=C(Cl)C4=CC(=O)[C@@H]5C[C@@H]5[C@]4(C)[C@H]3CC[C@@]21C", "note": "[Cyproterone Acetate]", "nuclei number (z-score)": "inactive: -0.645"},
      {"smiles": "N[C@H]1C[C@@H]1c1ccc(-c2cccc(O)c2)cc1", "nuclei number (z-score)": "inactive: 0.0393"},
      {"smiles": "Cn1cc(-c2cnn3c(N)c(Br)c([C@@H]4CCCNC4)nc23)cn1", "nuclei number (z-score)": "inactive: 0.481"},
      {"smiles": "N[C@@H]1CONC1=O", "note": "[D-Cycloserine]", "nuclei number (z-score)": "inactive: 0.439"},
      {"smiles": "C=C1C[C@@]2(O)O[C@@]3(C[C@H]2C(C)C)[C@@H](C)CC[C@@H]13", "note": "[Curcumol]", "nuclei number (z-score)": "inactive: -0.693"},
      {"smiles": "O=C(O)COCCN1CCN(C(c2ccccc2)c2ccc(Cl)cc2)CC1", "note": "(stereo not given) [Cetirizine DiHCl]", "nuclei number (z-score)": "inactive: -0.0152"},
      {"smiles": "CCCSc1nc(N[C@@H]2C[C@H]2c2ccc(F)c(F)c2)c2nnn([C@@H]3C[C@H](OCCO)[C@@H](O)[C@H]3O)c2n1", "note": "[Ticagrelor]", "nuclei number (z-score)": "inactive: 0.463"},
      {"smiles": "C=CC(=O)Nc1cccc(Nc2nc(Nc3ccc(Oc4ccnc(C(=O)NC)c4)cc3)ncc2F)c1", "nuclei number (z-score)": "inactive: -0.401"},
      {"smiles": "CC(=O)O[C@@]12CO[C@@H]1C[C@H](O)[C@@]1(C)C(=O)[C@H](O)C3=C(C)[C@@H](OC(=O)[C@H](O)[C@@H](NC(=O)OC(C)(C)C)c4ccccc4)C[C@@](O)([C@@H](OC(=O)c4ccccc4)[C@H]21)C3(C)C", "note": "[Docetaxel]", "nuclei number (z-score)": "inactive: 0.113"},
      {"smiles": "CC(=O)O[C@@]12CO[C@@H]1C[C@H](O)[C@@]1(C)C(=O)[C@H](O)C3=C(C)[C@@H](OC(=O)[C@H](O)[C@@H](NC(=O)OC(C)(C)C)c4ccccc4)C[C@@](O)([C@@H](OC(=O)c4ccccc4)[C@H]21)C3(C)C", "note": "[Docetaxel Trihydrate]", "nuclei number (z-score)": "inactive: -0.613"},
      {"smiles": "O=C(/C=C/c1ccccc1)NC(NC(=S)Nc1cccc2cccnc12)C(Cl)(Cl)Cl", "note": "(stereo not given) [Salubrinal]", "nuclei number (z-score)": "inactive: 0.0825"},
      {"smiles": "CN(C)CCN(Cc1ccccc1)c1ccccn1", "note": "[Tripelennamine HCl]", "nuclei number (z-score)": "inactive: -0.38"},
      {"smiles": "CC1CNc2c(cccc2S(=O)(=O)N[C@@H](CCCNC(=N)N)C(=O)N2CC[C@@H](C)C[C@@H]2C(=O)O)C1", "note": "(stereo not given in full) [Argatroban]", "nuclei number (z-score)": "inactive: -0.771"},
      {"smiles": "CO[C@H]1C[C@@H]2CC[C@@H](C)[C@@](O)(O2)C(=O)C(=O)N2CCCC[C@H]2C(=O)O[C@H]([C@H](C)C[C@@H]2CC[C@@H](OCCO)[C@H](OC)C2)CC(=O)[C@H](C)/C=C(\\C)[C@@H](O)[C@@H](OC)C(=O)[C@H](C)C[C@H](C)/C=C/C=C/C=C/1C", "note": "[Everolimus (RAD001)]", "nuclei number (z-score)": "inactive: -0.931"},
      {"smiles": "Fc1ccc(Cl)cc1-c1nc(Nc2ccncc2)c2nccnc2n1", "nuclei number (z-score)": "inactive: 4.85"},
      {"smiles": "Nc1ccn([C@@H]2O[C@H](CO)[C@@H](O)C2(F)F)c(=O)n1", "note": "[Gemcitabine]", "nuclei number (z-score)": "active: -4.42"},
      {"smiles": "Nc1ccn([C@@H]2O[C@H](CO)[C@@H](O)C2(F)F)c(=O)n1", "note": "[Gemcitabine HCl]", "nuclei number (z-score)": "active: -5.79"}
    ]}
  ]
}
